One test addresses T1, TRAF2 (human, UniProt Q12933 2-501).
T1 construct: Detected by Western blot in CD40 immunoprecipitates
T1 sequence (looked up): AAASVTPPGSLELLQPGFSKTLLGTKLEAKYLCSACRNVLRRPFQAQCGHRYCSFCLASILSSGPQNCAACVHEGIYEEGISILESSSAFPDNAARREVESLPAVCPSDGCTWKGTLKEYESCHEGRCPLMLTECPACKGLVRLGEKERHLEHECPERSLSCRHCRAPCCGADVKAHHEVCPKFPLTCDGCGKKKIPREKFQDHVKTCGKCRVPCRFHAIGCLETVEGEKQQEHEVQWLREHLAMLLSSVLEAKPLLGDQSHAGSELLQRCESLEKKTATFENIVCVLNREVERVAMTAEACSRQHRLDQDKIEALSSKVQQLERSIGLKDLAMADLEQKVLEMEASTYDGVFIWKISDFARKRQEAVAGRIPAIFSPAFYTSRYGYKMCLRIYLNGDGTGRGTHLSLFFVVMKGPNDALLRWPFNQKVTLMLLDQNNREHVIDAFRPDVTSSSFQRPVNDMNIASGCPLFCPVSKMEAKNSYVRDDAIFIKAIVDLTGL
The test is described as follows: immunoprecipitation of CD40 from normal human B cells, Western blot.

The next test has as its target T2, TRAF3 (human, UniProt Q13114 1-568).
T2 construct: Detected by Western blot in CD40 immunoprecipitates
T2 sequence (looked up): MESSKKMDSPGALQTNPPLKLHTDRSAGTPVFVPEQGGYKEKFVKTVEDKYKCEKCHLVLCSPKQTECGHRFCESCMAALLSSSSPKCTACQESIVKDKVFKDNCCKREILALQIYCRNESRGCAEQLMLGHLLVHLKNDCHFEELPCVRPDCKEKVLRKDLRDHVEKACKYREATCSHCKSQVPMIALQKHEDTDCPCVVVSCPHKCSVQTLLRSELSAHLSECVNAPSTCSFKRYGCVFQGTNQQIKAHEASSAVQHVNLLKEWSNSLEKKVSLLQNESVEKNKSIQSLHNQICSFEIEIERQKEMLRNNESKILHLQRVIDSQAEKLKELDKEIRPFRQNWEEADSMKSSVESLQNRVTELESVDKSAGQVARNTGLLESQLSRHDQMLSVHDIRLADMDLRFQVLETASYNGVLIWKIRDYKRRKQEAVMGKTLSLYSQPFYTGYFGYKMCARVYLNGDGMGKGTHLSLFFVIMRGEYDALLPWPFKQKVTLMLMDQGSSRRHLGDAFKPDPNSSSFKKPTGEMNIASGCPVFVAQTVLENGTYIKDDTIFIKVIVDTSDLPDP
Described as above.

B1: human CD40 antigen expressed on the surface of cells (receptor)
chain: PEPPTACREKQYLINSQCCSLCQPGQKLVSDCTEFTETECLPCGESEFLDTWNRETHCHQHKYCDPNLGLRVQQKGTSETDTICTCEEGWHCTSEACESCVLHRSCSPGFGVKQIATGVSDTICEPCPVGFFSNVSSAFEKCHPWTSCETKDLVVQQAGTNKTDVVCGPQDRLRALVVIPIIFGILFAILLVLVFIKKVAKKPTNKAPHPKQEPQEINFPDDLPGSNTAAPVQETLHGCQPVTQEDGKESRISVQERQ
notes: Cells: Ramos lymphoma line, EBV-transformed B cells, normal human B cells/PBMC, NHL and CLL patient cells, carcinoma tissue; also called cell surface CD40; cell-surface CD40
As for B1, the binding result with TRAF2 and with TRAF3 was “binds” each time.

Source of the values: US20080254026A1 (published 2008).
